The campaign covered roughly 410,000 compounds. About 7,200 (1.8%) were called active. Inconclusive results, whose numbers are uncertain, are shown with a selection of clear calls. Calls follow the shape of the dose curve; as a rule, active = well fitted activation curve with a large enough effect; inconclusive = small, poorly fitted or top-dose-only effect, or another doubt; inactive = no such curve, though single readings can be large or run the other way. No potency is given beside an inconclusive call; the fits are too rough.
Test: qHTS of TDP-43 Inhibitors; also: nearly all actives have a fitted effect of over 50% in size; as to growth rescue (activation): % of control where 0% means no effect
Settings: TDP-43 expressing yeast growth rescue, BacTiter-Glo, 24 h; growth rescue (activation): at 46.1 µM (top of the series) unless noted
Method in brief: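 Cell-based yeast growth screen: TDP-43 expression induced in galactose, inoculum OD600=0.02 after raffinose pregrowth to mid-log. Read-out BacTiter-Glo luminescence at 24 hr, 30 deg C; inhibition of toxicity seen as signal increase.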
For `CN(N)c1nc(-c2ccccc2)cc(-c2ccccc2)n1`, the Potency was active: 11.2 µM. In the case of `O=C(/C=C/c1ccc(-c2ccccc2[N+](=O)[O-])o1)c1ccco1`, the Potency is reported as inconclusive [activator, single point]. For `COc1ccc(-c2cnc3c(NC=O)cc(-c4ccccc4OC)cn23)cc1OC`, the Potency was inconclusive [activator, partial curve]. In the case of `Cc1ccc(S(=O)(=O)CCC(=O)OCc2ccc(Cl)cc2)cc1`, the Potency is reported as active: 25.1 µM. In the case of `CCCCNC(=S)Nc1ccc(-c2nc3ccc(C)cc3s2)cc1`, the Potency is reported as inconclusive [activator, single point]. For `Clc1ccc(-c2nnc(NC3=NCCCCC3)o2)cc1`, the Potency was inconclusive [activator, full curve, poor fit]. With `CCc1nc(SCC(=O)N2CCC(C)CC2)c2c(=O)n(C)c(=O)n(C)c2n1` the Potency was inconclusive [activator, single point]. For `COc1ccc(C(C(=O)c2ccccc2)c2ccccc2)cc1` (stereo not given), the Potency was inconclusive [activator, single point]. For `Cc1nn(CCOc2cccc(Cl)c2)c(C)c1[N+](=O)[O-]`, the Potency was inconclusive [activator, single point]. In the case of `Cc1cc(C)c(S(=O)(=O)NCC(c2cccs2)S(=O)(=O)c2ccccc2)c(C)c1` (stereo not given), the Potency is reported as active: 2.82 µM. In the case of `O=C(c1ccco1)N1CCN(S(=O)(=O)c2cc(Cl)ccc2Cl)CC1`, the Potency is reported as active: 17.8 µM. In the case of `CCOC(=O)c1sc2nc(-c3ccco3)c3c(c2c1N)CC(C)(C)OC3`, the Potency is reported as inconclusive [activator, single point]. With `COCCNc1cc(-c2ccccc2)nc2cc(-c3cccc(F)c3)nn12` the Potency was active: 3.16 µM. With `COc1ccccc1-c1ccc(/C=C2\C=CC(=O)O2)o1` the Potency was inconclusive [activator, single point]. In the case of `NC(=O)c1ccsc1NC(=O)COC(=O)/C=C/c1ccccc1[N+](=O)[O-]`, the Potency is reported as inconclusive [activator, partial curve]. For `Cc1cc(NC(=O)CSc2ncc(C(=O)Nc3ccc(F)cc3)c(=O)n2C)no1`, the Potency was “inactive”. In the case of `CC(=O)c1c(C)[nH]c(C(=O)OCC(=O)N2CC(C)OC(C)C2)c1C` (stereo not given), the Potency is reported as inconclusive [activator, single point]. For `CC1(C)CC(=O)c2c(oc3c(Cl)cc(NS(=O)(=O)c4ccc(Cl)cc4)cc23)C1`, the Potency was “inactive”. With `NC(=O)CSc1ncc2c(n1)-c1ccccc1N(Cc1cccc(F)c1)S2(=O)=O` the Potency was “inactive”. In the case of `NS(=O)(=O)c1ccc(N/C=C\C(=O)c2ccc(F)cc2)cc1`, the Potency is reported as inconclusive [activator, single point]. For `COc1cccc(-c2cccc3c2NC(=O)C3(C)Cc2cccc(F)c2)c1` (stereo not given), the Potency was inconclusive [activator, single point]. With `COc1ccc(-c2cn3c(C)c(C(=O)N4CCN(c5ccccc5F)CC4)sc3n2)cc1` the Potency was “inactive”. In the case of `Cc1cccc(N2CCN(C(=O)CS(=O)(=O)c3cccc4nsnc34)CC2C)c1` (stereo not given), the Potency is reported as inconclusive [activator, partial curve, poor fit]. With `CCOC(=O)CON1C(=O)c2ccccc2C1=O` the Potency was inconclusive [activator, partial curve]. For `Cc1nc(-c2ccc(NC(=O)CC(C)C)cc2)cs1`, the Potency was inconclusive [activator, single point]. For `COc1ccc2cc3cc(C(=O)N4CCCC(C)C4)oc3nc2c1` (stereo not given), the Potency was inconclusive [activator, partial curve]. In the case of `CN(C)S(=O)(=O)c1cccc(COC(=O)Cc2c(F)cccc2Cl)c1`, the Potency is reported as inconclusive [activator, single point]. For `O=C(COc1ccccc1Cc1ccccc1)Nc1cccnc1`, the Potency was inconclusive [activator, partial curve, poor fit]. With `CCOc1ccc(C2NC(=O)C(C#N)=C(S)N2c2ccc(C)cc2)cc1OC` (stereo not given) the Potency was inconclusive [activator, partial curve]. For `COc1cccc(-c2sc3ccc(OC)cc3c2C#CC(C)(C)O)c1`, the Potency was active: 17.8 µM. In the case of `O=c1oc2ccc(Br)cc2cc1-c1csc(-c2ccc(Cl)cc2)n1`, the Potency is reported as inconclusive [activator, single point]. With `O=C(COc1ccc(Br)cc1CO)Nc1ccccc1` the Potency was inconclusive [activator, partial curve]. With `OCCCc1nc2ccccc2n1CCOc1ccccc1` the Potency was “inactive”. For `CNc1nc(N)c([N+](=O)[O-])c(Nc2ccccc2OC)n1`, the Potency was active: 2.51 µM. For `COc1ccccc1C(=O)Nc1cccc(NC(=O)c2ccccc2OC)n1`, the Potency was inconclusive [activator, single point]. For `COc1ccc(NC(=O)CN(C)C(=O)c2cccc(Oc3ccccc3)c2)cc1`, the Potency was inconclusive [activator, partial curve]. For `N#CCCN1CCN(C(=S)c2ccc(-c3cc(Cl)ccc3Cl)o2)CC1`, the Potency was inconclusive [activator, single point]. For `COc1ccc(NC(=O)c2cc3c(CO)cnc(C)c3oc2=Nc2cccc(C)c2)c(OC)c1`, the Potency was “inactive”. For `CC1(C(=O)Nc2ccc3c(c2)OCCO3)CCN1C(=O)CC1CCCC1` (stereo not given), the Potency was inconclusive [activator, partial curve]. With `COC(=O)c1ccccc1NC(=O)c1cccs1` the Potency was inconclusive [activator, partial curve]. In the case of `CC1(C)Cc2ccccc2-c2nc(NCCO)n(-c3ccccc3)c(=O)c21`, the Potency is reported as inconclusive [activator, full curve, poor fit]. With `C[C@@H]1C(c2ccccc2)=NN(c2ccc(Br)cc2)[C@H]1C(=O)N1CCOC1=O` the Potency was inconclusive [activator, single point]. In the case of `CN(Cc1cc(Cl)cc(Cl)c1)CC(C(=O)c1ccccc1)c1ccccc1` (stereo not given), the Potency is reported as active: 12.6 µM. With `COC(=O)[C@@]1(Cc2ccccc2)[C@H]2C(=O)N(Cc3ccccc3)C(=O)[C@H]2[C@H]2CN=C(SCC3CC3)N21` the Potency was “inactive”. In the case of `Cn1ccc2cc(S(=O)(=O)N3CCCN(C(=O)Nc4ccccc4Br)CC3)ccc21`, the Potency is reported as inconclusive [activator, single point]. For `CCCc1cc(=O)[nH]c(Nc2ccc(C(=O)O)cc2)n1`, the Potency was “inactive”. For `CN(CC(=O)Nc1ccccc1[N+](=O)[O-])Cc1ccc(Br)cc1`, the Potency was inconclusive [activator, partial curve, poor fit]. For `CCOc1ccc(CNC(=O)CCC(=O)N2CC(C)Sc3ccccc32)cc1` (stereo not given), the Potency was inconclusive [activator, partial curve]. In the case of `CC(C)OC(=O)Cn1nc(C(c2ccccc2)c2ccccc2)oc1=O`, the growth rescue (activation) is reported as inconclusive: 30.6% [activator]. With `CN(C)c1c2ccccc2nc2c(F)c(F)c(F)c(F)c12` the Potency was inconclusive [activator, single point]. With `Cn1c(SCc2c(Cl)cccc2Cl)nnc1-c1ccc2nonc2c1` the Potency was inconclusive [activator, single point]. With `Cc1ccc(-c2ccc(CN3C(C)C(=O)N(Cc4cn(Cc5ccco5)nn4)CCS3(=O)=O)cc2)cc1` (stereo not given) the Potency was inconclusive [activator, partial curve, poor fit]. With `COc1cc(C(=O)Oc2c(Sc3ccc(C)cc3)c(C)nn2-c2ccccc2)cc(OC)c1OC` the Potency was active: 22.4 µM. In the case of `CCC(=O)c1ccc(OCC(=O)Nc2ccccc2N2CCOCC2)cc1`, the Potency is reported as inconclusive [activator, partial curve]. In the case of `Cc1nc(C(=O)NCCC(C)C)sc1C1(C)CC(c2ccccc2)=NO1` (stereo not given), the Potency is reported as “inactive”. For `O=C(O)c1cc(Cl)c2c(c1)OCO2`, the Potency was inconclusive [activator, partial curve]. For `CCCCN1CCc2c([nH]c3ccc(C)cc23)C1=O`, the Potency was inconclusive [activator, partial curve]. In the case of `CC1CCN(c2ccccc2NC(=S)NC(=O)c2cccs2)CC1`, the Potency is reported as “inactive”. For `COc1ccc(N2C(=O)CC(N3CCN(c4ccccc4)CC3)C2=O)cc1` (stereo not given), the Potency was inconclusive [activator, partial curve]. With `O=[N+]([O-])c1cccc2ccc(N3CCOCC3)nc12` the Potency was inconclusive [activator, single point]. With `CC(=O)Nc1cc(-c2ccc(N(C)C)cc2)cn2c(-c3ccc(F)c(Cl)c3)cnc12` the Potency was inconclusive [activator, single point]. With `Cc1ccc(C(=O)N(Cc2ccc(N(C)C)cc2)Cc2ccco2)cc1` the Potency was inconclusive [activator, full curve, poor fit]. With `Cc1oc(-c2ccc(C(=O)Nc3cc(F)ccc3F)cc2)nc1COc1ccccc1` the Potency was “inactive”. In the case of `Cc1ccc(NC(=O)c2ccc(OCC3CCCO3)cc2)cc1Cl` (stereo not given), the Potency is reported as “inactive”. In the case of `CCCCCC(=O)N(O)C1CC(=O)N(c2ccccc2)C1=O` (stereo not given), the growth rescue (activation) is reported as inconclusive: -92.7% [activator]. For `CCCCNC(=S)N/N=C/C1=CCC2CC1C2(C)C` (stereo not given), the Potency was “inactive”. For `Cc1cccc(NC(=O)C2CCCN(S(=O)(=O)c3cnc[nH]3)C2)c1C` (stereo not given), the Potency was “inactive”. In the case of `COc1ccccc1-c1oc2ccccc2c1C#CC1(O)CCCCC1`, the Potency is reported as inconclusive [activator, full curve]. In the case of `CC(NC(=O)CSc1ncccn1)c1ccc2c(c1)OCO2` (stereo not given), the Potency is reported as inconclusive [activator, single point]. For `O=C(N/N=C/c1cccnc1)c1sc2ccccc2c1Cl`, the Potency was inconclusive [activator, partial curve].

Source: PubChem BioAssay AID652104 (National Center for Advancing Translational Sciences (NCATS), 2013)
Potency is read from the fitted curve at half-maximal effect; tags tell the direction and shape of the fitted curve.
